Our source for the enrichment ratio values is a collection of fitness landscapes (doi:10.1126/science.1257360).

The other results are listed elsewhere or left out.

Sequences and labels used below:
B1: PhoQ; a variant is named by its letters at X, in order, P23837 (parent)
chain: MKKLLRLFFPLSLRVRFLLATAAVVLVLSLAYGMVALIGYSVSFDKTTFRLLRGESNLFYTLAKWENNKLHVELPENIDKQSPTMTLIYDENGQLLWAQRDVPWLMKMIQPDWLKSNGFHEIEADVNDTSLLLSGDHSIQQQLQEVREDDDDAEMTHSVAVNVYPATSRMPKLTIVVVDTIPVELKSSYMVWSWFIYVLSANLLLVIPLLWVAAWWSLRPIEALAKEVRELEEHNRELLNPATTRELTSLVRNLNRLLKSERERYDKYRTTLTDLTHSLKTPLXXLQXXLRSLRSEKMSVSDAEPVMLEQISRISQQIGYYLHRASMRGGTLLSRELHPVAPLLDNLTSALNKVYQRKGVNISLDISPEISFVGEQNDFVEVMGNVLDNACKYCLEFVEISARQTDEHLYIVVEDDGPGIPLSKREVIFDRGQRVDTLRPGQGVGLAVAREITEQYEGKIVAGESMLGGARMEVIFGRQHSAPKDE

In the assay the parent is B1. Kind of assay: enrichment ratio after two sorts for PhoP signalling (ratio (wild type AVST 3.29)); higher = more functional. The following applies: with PhoP (E. coli).
As for MWYF, the enrichment ratio is not above 0.25. Regarding NKQL, the enrichment ratio is not above 0.25. In the case of ECSS it was not above 0.25; in that of FLWW, not above 0.25. The figure for YDKC is not above 0.25; for FEPM it is not above 0.25; for LFEC it is not above 0.25. MATY: the enrichment ratio was not above 0.25.

For RARE, the enrichment ratio was not above 0.25. On to SMVK, for which the enrichment ratio was 1.5.

Regarding EQKM, the enrichment ratio was not above 0.25. In the case of SKNM it was not above 0.25. The figure for LAEV is not above 0.25. In the case of QAMC, the enrichment ratio was not above 0.25. Regarding HNAM, the enrichment ratio is not above 0.25.

For WSMA, the enrichment ratio was not above 0.25. The figure for DISI is not above 0.25; for AMYK it is not above 0.25; for DTWQ it is not above 0.25. As for SGSH, the enrichment ratio was found to be 10.8. As to ICKY, the enrichment ratio is not above 0.25. In the case of LYPS it was not above 0.25.

For LGYM, the enrichment ratio came out at 8.74. The figure for MRRM is not above 0.25. In the case of RYMF it was not above 0.25; in that of KPWF, not above 0.25; in that of GGSI, 12.3. In the case of EDIC it was not above 0.25. Regarding RVAT, the enrichment ratio was not above 0.25. Consider ACFS, for which the enrichment ratio is not above 0.25. The figure for SNFW is 1.1.

With IPGP, the enrichment ratio was not above 0.25. As for RGHY, the enrichment ratio is not above 0.25.

In the case of HWLL, the enrichment ratio is not above 0.25. The figure for FHEH is not above 0.25; for MIWG it is not above 0.25; for SDLT it is 7.31. LMKG: the enrichment ratio was not above 0.25. Consider NVPR, for which the enrichment ratio was not above 0.25.

For LFNA, the enrichment ratio was not above 0.25.

As for AFDT, the enrichment ratio was not above 0.25. In the case of LYVQ, the enrichment ratio was not above 0.25.

As for GRQV, the enrichment ratio was not above 0.25. KAET: the enrichment ratio was not above 0.25.

For the variant MLKD, the enrichment ratio is not above 0.25.

Turning to SFKL, the enrichment ratio is not above 0.25. In the case of KYWQ it was not above 0.25; in that of FHRA, not above 0.25; in that of AFDM, not above 0.25.

Take DNAY: the enrichment ratio is not above 0.25. In the case of GKRK it was not above 0.25; in that of TKNF, not above 0.25. The figure for VTQS is not above 0.25; for EIDV it is not above 0.25. In the case of FHPC it was not above 0.25; in that of KNWT, not above 0.25. As for PWNH, the enrichment ratio is not above 0.25. The figure for GCRQ is not above 0.25.

Turning to KPPK, the enrichment ratio is not above 0.25. In the case of LAMP it was not above 0.25. In the case of RATE it was not above 0.25; in that of YHRS, not above 0.25. Regarding FLNC, the enrichment ratio is not above 0.25. Regarding IWKY, the enrichment ratio was not above 0.25. In the case of YSHH it was not above 0.25; in that of AHTD, not above 0.25. In the case of IVGD it was not above 0.25; in that of HDCI, not above 0.25. In the case of MYLP it was not above 0.25; in that of NGSQ, not above 0.25. In the case of YNME, the enrichment ratio is not above 0.25.

For YHTS, the enrichment ratio is not above 0.25.

Turning to ELPM, the enrichment ratio was not above 0.25. In the case of QYFS it was not above 0.25; in that of RAAG, not above 0.25. Turning to YAYL, the enrichment ratio is not above 0.25.

For the variant FKCY, the enrichment ratio was not above 0.25. The figure for VHSK is not above 0.25. In the case of MLSG it was not above 0.25. As to THEV, the enrichment ratio is not above 0.25. The figure for EFFK is not above 0.25; for GQEW it is not above 0.25; for GMWN it is not above 0.25. For the variant KGQS, the enrichment ratio is not above 0.25.
